# According to ChEMBL document CHEMBL4888484, “Replenishing the malaria drug discovery pipeline: Screening and hit evaluation of the MMV Hit Generation Library 1 (HGL1) against asexual blood stage Plasmodium falciparum ,using a nano luciferase reporter read-out” (2022):
# The whole screen tested about 150,000 compounds, of which about 540 (0.36%) showed an effect of 50% or more. Some of the results follow.
# System: Plasmodium falciparum
# Assay: Primary screen in NF54 nanoGlo assay, in single point, at 2uM, 72h; a lower Z score goes with more inhibition
# Assay type: functional, Erythrocyte
# Settings: timepoint 72 hour
Structure (SMILES),% Inhibition,Z score
CC(C)n1c(=O)sc2cc(S(=O)(=O)N3CCN(C(=O)CCc4c[nH]c5ccccc45)CC3)ccc21,-21%,2.08
COc1nccnc1CN[C@H](c1ccccc1)C1(CO)CCC1,3%,-0.35
COc1ccc(-n2c(N)c(NC(=O)Nc3cccc(Cl)c3)c(=O)[nH]c2=O)cc1,12%,-1.54
COc1ccccc1-c1cc(C(=O)NC2CCCCC2)nc2cc(-c3ccccc3)nn12,-12%,1.32
COc1ccccc1COc1cc(NC(=O)NC(C)(C)C)ncn1,-10%,1.9
COc1ccc(CN2CCC3(CCCC3)C2)cc1OC[C@@H](O)CN1CCCC1,-11%,1.99
COc1cc(CN(C)Cc2cc(C)no2)ccc1OC[C@@H](O)CN1CCCCCC1,7%,-0.97
O=C(COc1cccc(C(F)(F)F)c1)N1CCN(c2cc(-n3cncn3)ncn2)CC1,-11%,1.67
Cn1cc(Cl)c(C(=O)NC(C)(C)c2nc3ccccc3s2)n1,4%,-0.56
Cn1cc(S(=O)(=O)N[C@H]2C[C@@H](c3cc(N4CCOCC4)ncn3)C2)cn1,-13%,1.19
Cc1nccn1CC(=O)N1CCCN(C(=O)CC2CCCC2)CC1,-20%,1.89
CC1CC(C)CN(S(=O)(=O)c2ccc(C(=O)Nc3ncnc4sccc34)cc2)C1 (stereo not drawn),-5%,0.76
O=C(Cc1ccc(F)cc1)NC[C@]1(O)CCOc2ccccc21,18%,-2.54
O=C1CCCN1[C@H]1CCCN(Cc2cccc(O)c2)CC1,-7%,0.7
Cc1noc([C@H]2CN(C(=O)Nc3ccc(Cl)cc3C)CC23CCOCC3)n1,-5%,0.87
O=S1(=O)CC[C@H](Cc2nc(C3CC3)nn2-c2ccccn2)C1,-13%,1.82
O=C(COc1ccccc1Cl)Nc1ccc(-n2cnnn2)cc1,-5%,0.75
COc1ccc(OC)c(N(CC(=O)NCc2ccc3c(c2)OCO3)S(C)(=O)=O)c1,-7%,1.01
c1ccc(-c2nnn(Cc3noc(-c4ccco4)n3)n2)cc1,3%,-0.4
CN1CCN(c2ccccc2NC(=O)NCc2ccccc2)CC1,1%,-0.12
O=C(CN1C(=O)CC(Cc2ccc(F)cc2)C1=O)NCC1CCCO1 (stereo not drawn),8%,-1.06

Structure (SMILES),% Inhibition,Z score
CCCCS(=O)(=O)N[C@H]1COC[C@@H]1N1CCN(C)CC1,-9%,1.84
CCOC(=O)C1CCN(c2ccc(-c3nc(-c4ccc(C)cc4)no3)cn2)CC1,-8%,0.86
CCN(CC)C(=O)c1ccc2c(c1)n(Cc1cccc(OC)c1)c(=O)c1ccnn12,-10%,1.53
CC[C@@H]1Oc2ccc(NC(=O)Cc3ccccc3)cc2CN(CCc2ccc(OC)c(OC)c2)C1=O,3%,-0.47
CN1C(=O)c2ccc(-c3ccc(F)cc3F)cc2O[C@H]2CN(C3CCCC3)C[C@H]21,-4%,0.54
CN1CCN(S(=O)(=O)c2ccccc2CNc2cnccn2)CC1,-13%,1.97
COC(=O)CNC(=O)[C@@H](NC(=O)c1c(F)cccc1F)C(C)C,-3%,0.5
O=C(CN1CCCC1)NCC[C@H]1CCCOC1,-8%,1.31
CN(Cc1cccn1-c1nccs1)C[C@H]1CCCCO1,1%,-0.1
COc1ccc2c(=O)c(C(=O)c3ccncc3)cn(CC(=O)Nc3ccc4c(c3)OCCO4)c2c1,5%,-0.75
Cc1ccc(CNc2nnc(-c3ccco3)o2)o1,-10%,0.93
CCn1nccc1C(=O)NC1CCN(c2nnc3ccc(Cl)cn23)CC1,36%,-0.94
O=C(c1cc(=O)c(OCc2ccccc2)c[nH]1)N1CCN(c2cccc(C(F)(F)F)c2)CC1,23%,-3.04
CCc1ncnc(N2CC[C@H](Cc3nnn[nH]3)C2)c1F,-13%,1.77
CS(=O)(=O)N1CCN(C(=O)c2ccc(N3CCC(Cc4ccccc4)CC3)nn2)CC1,-12%,2.07
OCC1(CNc2cc(-c3ccccc3)n3ncnc3n2)CCOCC1,-8%,0.86
CNC(=O)[C@@H]1CCCC[C@@H]1C(=O)N1CCCC2(CCOCC2)C1,-10%,1.36
CCn1ccnc1CN(C)Cc1cnc(C(C)C)nc1,5%,-1
O=C(COc1ccccc1C(=O)c1cnn(-c2ccccc2)c1)NCc1cccc(Cl)c1,-6%,1.04
Cn1cccc1C(=O)N1CCn2c(nnc2[C@@H]2CCCCN2S(C)(=O)=O)C1,2%,-0.28
Cn1nc(O)c2c1CN(CC(=O)NCCc1ccc(F)cc1)CC2,-4%,0.53

Structure (SMILES),% Inhibition,Z score
NC(=O)c1cc(NC(=O)C2(Cc3cccc(F)c3)CCCCC2)c[nH]1,4%,-0.39
COc1ccc2nc(N3C(=O)c4ccccc4C3=O)sc2c1,-8%,1.01
COc1c(C(=O)N2CCc3n[nH]c(C(F)F)c3C2)c(C)nn1C,-3%,0.36
CCn1c(=O)c(C)nc2cc(C(=O)Nc3ccccc3C(=O)Nc3ccc4c(c3)OCO4)ccc21,-6%,0.68
O=C(NC[C@H]1CNCCO1)c1nc2c(s1)CCCC2,0%,0.03
O=S(=O)(c1c(F)cccc1Br)N1CC[C@@H](O)C1,-2%,0.46
CC(C)c1cc(C(=O)N2CCS(=O)(=O)C(C)C2C)on1 (stereo not drawn),0%,0.04
CCN1C(=O)c2ccccc2Oc2ccc(C(=O)Nc3ccc(C)cc3C)cc21,-14%,1.99
C[C@H](NC(=O)c1cnn(CC(=O)NC2CCCCC2)c1)C(C)(C)C,-20%,2.85
CN(C[C@H]1CCCN(C(=O)c2ccnc3c2ncn3C)C1)S(C)(=O)=O,2%,-0.37
FC1(F)CCN(c2nnc(C3CCC3)o2)CC1,7%,-0.91
CN1C[C@@H](NC(=O)c2csc(CCc3ccccc3)n2)CCC1=O,2%,-0.31
O=C(CN1CCC[C@H]1C1CCCC1)NCC1CC1,-4%,0.55
CCOC(=O)c1cc(-c2cccc(NC(=O)COc3ccccc3)c2)n(-c2ccccc2OC)n1,-6%,0.63
O=C(c1cccc(F)c1)N1CCCC[C@H](N2CCCC2)C1,-9%,0.82
COCCn1c(C)cnc1CC1CCN(C(=O)C(C)C)CC1,-16%,2.3
CC(C)[C@H](Cc1ccc(F)cc1)NC(=O)Nc1ccnn1C,2%,-0.48
CN(C)S(=O)(=O)Nc1cccc(N)c1,-11%,1.46
C[C@@]1(C(=O)NC2CCCCCC2)COCc2nnc(C3CCCC3)n21,-3%,0.45
O=C(Nc1cccc(F)c1)N1CC2C3CCC(C3)C21 (stereo not drawn),-9%,1.61
Cc1cc(C)c(OCCOCCN(C)C)c(Br)c1,-9%,1.2

Structure (SMILES),% Inhibition,Z score
Cc1ccc2oc(-c3noc(C(=O)NCc4cccc(Br)c4)n3)c(C)c2c1,4%,-0.46
COc1ccc(-c2ccc(C(C)=O)cn2)c(OC)n1,-5%,0.76
Cc1cc(C(=O)NC2CCN(C(=O)[C@H](Cc3ccccc3)N(C)C)CC2)c(C)o1,-5%,0.7
Cc1cc(-c2nc3ccccc3s2)ccc1NC(=O)Nc1ccccc1Br,-3%,0.51
COc1ccc(S(=O)(=O)N2C[C@@H]3C[C@H](C2)c2ccc(NC(=O)c4cnccn4)c(=O)n2C3)cc1,-9%,1.76
COc1cccc(-n2ccnc2C2CC2)c1Cl,-4%,0.62
COc1ccc(OCc2nc(C(=O)NCc3cccnc3N)co2)cc1,16%,-1.9
Cc1occc1C(=O)NCCn1ccnc1,-6%,0.87
O=C(c1cc(-c2ccncc2)n(-c2ccccc2)n1)N1CCCCCC1,4%,-0.73
O=C(C[C@H](c1ccccc1F)c1cn(Cc2ccccc2)c2ccccc12)N1CCOCC1,-3%,0.48
CCCS(=O)(=O)Nc1cc(N)c(F)cc1F,-9%,1.42
COc1ccc(Cl)cc1C(=O)N[C@H]1CCc2nn(C)c(=O)cc2C1,-18%,3.11
C#CCN(C)C(=O)c1ccncc1CC,0%,-0.01
Cc1ccc(-c2ccc3nnc(C)n3n2)cc1S(=O)(=O)N1CCOCC1,-1%,0.18
CCc1cc(CNC(=O)NCCNC(=O)C2CCCC2)on1,-4%,0.5
Cc1cc(N2CCC(n3c(=O)[nH]c4cccnc43)CC2)ncn1,22%,-2.81
O=C(COc1ccccc1F)NC(CO)C(O)c1ccccn1 (stereo not drawn),-5%,0.69
OCc1cc(CN[C@H]2CCCNc3ccccc32)ccc1F,4%,-0.52
CN(C[C@H]1CCCCN1C)C(=O)c1cccc(-c2cc(F)c(F)cc2O)c1,2%,-0.29
Cc1nnnn1CCC(=O)N1CC[C@]23C(=O)N(CC(=O)N(C)CCCOc4cccc(c4)[C@H]12)c1ccccc13,-6%,1.09
COC(=O)c1ccnc(-c2cc[nH]n2)c1,6%,-1.1
